Laboratory results as given in the supplement of paper PMC6609913.
Counter-ions that a name gives are not always drawn. ± gives the standard deviation of the averaged measurements. In all, about 1,300 compounds were measured (“normalised cell viability”: median about 1, lowest 2% from about 0.14 on). Some of the results follow.

Test system: V-C8 (BRCA2-deficient hamster cells)
Assay: normalised cell viability (fraction of plate median); higher = more viable cells (less toxic)
Conditions: 5 µM
Method in brief: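 Hamster V-C8 cells with and without restored BRCA2 were exposed in 96-well plates to library drugs at 5 μM for 3 days (screen 1) or 6 days (screen 2). Cell viability was scored by resazurin assay, then median-plate normalised, averaging triplicate wells.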

Row | SMILES | normalised cell viability (treatment time: 3 days) | normalised cell viability (treatment time: 6 days)
1 | COc1ccc2c(c1)c(CC(=O)O)c(C)n2C(=O)c1ccc(Cl)cc1 [Indomethacin] | 1.08 ± 0.1 | 1.02 ± 0.068
2 | CN1CCC(=C2c3ccccc3CCc3cccnc32)CC1 [Azatadine maleate] | 1.14 ± 0.033 | 1.07 ± 0.084
3 | Nc1nc2ccc(OC(F)(F)F)cc2s1 [Riluzole hydrochloride] | 0.972 ± 0.052 | 0.949 ± 0.046
4 | CC(C)(C)NCC(O)COc1cccc2c1CCC(=O)N2 (stereo unspecified) [Carteolol hydrochloride] | 1.07 ± 0.022 | 1 ± 0.031
5 | C=C1c2c(Cl)ccc(O)c2C(=O)C2=C(O)[C@]3(O)C(=O)C(C(N)=O)=C(O)[C@@H](N(C)C)[C@@H]3[C@@H](O)[C@H]12.O=C(O)c1cc(S(=O)(=O)O)ccc1O [Meclocycline sulfosalicylate] | 0.934 ± 0.057 | 0.862 ± 0.05
6 | CCOC(=O)O[C@]1(C(=O)COC(=O)CC)CC[C@H]2[C@@H]3CCC4=CC(=O)C=C[C@]4(C)[C@H]3[C@@H](O)C[C@@]21C [Prednicarbate] | 0.835 ± 0.12 | 1.01 ± 0.11
7 | CC(=O)NCCCS(=O)(=O)O [Acamprosate calcium] | 1.09 ± 0.036 | 1.07 ± 0.052
8 | C[C@H]1c2cccc(O)c2C(=O)C2=C(O)[C@]3(O)C(=O)C(C(N)=O)=C(O)[C@@H](N(C)C)[C@@H]3[C@@H](O)[C@@H]21 [Doxycycline hydrochloride] | 0.871 ± 0.03 | 0.887 ± 0.075
9 | C[C@](N)(Cc1ccc(O)c(O)c1)C(=O)O [Methyldopa (L,-)] | 1.06 ± 0.034 | 1.04 ± 0.042
10 | c1cnc(N2CCN(Cc3ccc4c(c3)OCO4)CC2)nc1 [Piribedil hydrochloride] | 1.06 ± 0.062 | 1.12 ± 0.1
11 | Clc1ccc(C(Cn2ccnc2)OCc2ccsc2Cl)c(Cl)c1 (stereo unspecified) [Tioconazole] | 0.97 ± 0.046 | 0.966 ± 0.059
12 | CCCC1C(=O)N2C(N(C)C)=Nc3ccc(C)cc3N2C1=O (stereo unspecified) [Azapropazone] | 1.13 ± 0.12 | 1.01 ± 0.012
13 | CCOC(=O)O[C@]1(C(=O)OCCl)CC[C@H]2[C@@H]3CCC4=CC(=O)C=C[C@]4(C)[C@H]3[C@@H](O)C[C@@]21C [Loteprednol etabonate] | 0.934 ± 0.034 | 0.947 ± 0.039
14 | Cc1ccc(NC(=O)c2ccc(CN3CCN(C)CC3)cc2)cc1Nc1nccc(-c2cccnc2)n1 [Imatinib] | 0.852 ± 0.041 | 0.851 ± 0.078
15 | O=C(O)c1cn(C2CC2)c2cc(N3CCNCC3)c(F)cc2c1=O [Ciprofloxacin hydrochloride hydrate] | 1.1 ± 0.11 | 1.07 ± 0.046
16 | COc1ccc(-c2cc(=S)ss2)cc1 [Anethole-trithione] | 0.969 ± 0.013 | 1.03 ± 0.056
17 | C#CCN[C@@H]1CCc2ccccc21 [Rasagiline] | 1.08 ± 0.055 | 1.06 ± 0.038
18 | COc1cc(C(=O)NCc2ccc(OCCN(C)C)cc2)cc(OC)c1OC [Trimethobenzamide hydrochloride] | 0.981 ± 0.016 | 0.985 ± 0.032
